Some of the results follow. Single values are uncertain, as repeats are few or missing.
The compounds below were run on A2058 (assay: cell count relative to DMSO control; melanoma cells; higher = more viable cells). Settings: library dose: standard library concentration; 72 h.
Work on `CN(NC(=O)CC(=O)NN(C)C(=S)c1ccccc1)C(=S)c1ccccc1` + Oc1nc(-c2ccc(C(F)(F)F)cc2)nc2c1CSCC2 [XAV939] (first compound 0.03 µM, partner dose 10 µM) yielded a cell count of 8.56%. `CC(C)(C)c1cnc(CSc2cnc(NC(=O)C3CCNCC3)s2)o1` + CN(NC(=O)CC(=O)NN(C)C(=S)c1ccccc1)C(=S)c1ccccc1 [STA4783] (first compound 0.05 µM, partner dose 0.03 µM) gave a cell count of 8.6%. With `CC(C)(C)c1cnc(CSc2cnc(NC(=O)C3CCNCC3)s2)o1` + NC(=O)Nc1cc(-c2cccc(F)c2)sc1C(=O)N[C@H]1CCCNC1 [AZD7762] (first compound 0.05 µM, partner dose 0.1 µM) the cell count was 63.7%. `NC(=O)c1ccc(N(C(N)=O)c2c(F)cccc2F)nc1-c1ccc(F)cc1F` + CN(c1ncccc1CNc1nc(Nc2ccc3c(c2)CC(=O)N3)ncc1C(F)(F)F)S(C)(=O)=O [PF562271] (first compound 2 µM, partner dose 0.4 µM) gave a cell count of 70.5%. `CCCCCCCCc1ccc(CCC(N)(CO)CO)cc1` [fingolimod] + Cn1c(Nc2ccc(C(F)(F)F)cc2)nc2cc(Oc3ccnc(-c4ncc(C(F)(F)F)[nH]4)c3)ccc21 [CHIR265] (first compound 10 µM, partner dose 0.4 µM) gave a cell count of 3.99%. In the case of `CCc1ccc(CCOc2ccc(CC3SC(=O)NC3=O)cc2)nc1` (stereo not drawn) [pioglitazone] + Cn1cc(/C=C2\C(=O)Nc3cccnc32)c2ccccc21 [GW441756] (first compound 10 µM, partner dose 2 µM), the cell count is reported as 106%.

These compounds were tested on A375 in the same assay as above. Settings: library dose: standard library concentration; 72 h.
`NC(=O)c1ccc(N(C(N)=O)c2c(F)cccc2F)nc1-c1ccc(F)cc1F` + Cn1c(=O)n(-c2ccc(C(C)(C)C#N)cc2)c2c3cc(-c4cnc5ccccc5c4)ccc3ncc21 [NVP-BEZ235] (first compound 2 µM, partner dose 0.02 µM) showed a cell count of 113%. For `CC(C)(C)c1cnc(CSc2cnc(NC(=O)C3CCNCC3)s2)o1` + N#Cc1c(O)c2c(-c3ccc(-c4ccccc4O)cc3)csc2[nH]c1=O [A769662] (first compound 0.05 µM, partner dose 10 µM), the cell count was 102%. For `CCCCCCCCc1ccc(CCC(N)(CO)CO)cc1` [fingolimod] + Nc1ncn([C@H]2C[C@H](O)[C@@H](CO)O2)c(=O)n1 [decitabine] (first compound 10 µM, partner dose 0.5 µM), the cell count was 61.2%. `CN(NC(=O)CC(=O)NN(C)C(=S)c1ccccc1)C(=S)c1ccccc1` + COc1cc2ncnc(Nc3ccc(Oc4ccccc4)cc3)c2cc1OC [SrcI1] (first compound 0.03 µM, partner dose 10 µM) gave a cell count of 164%. `Cc1ccc(NC(=O)c2cccc(N(C)C)c2)cc1NC(=O)c1ccc(O)cc1` + COc1cc2ncnc(Nc3ccc(Oc4ccccc4)cc3)c2cc1OC [SrcI1] (first compound 10 µM, partner dose 10 µM) showed a cell count of 133%. For `CCCCCCCCc1ccc(CCC(N)(CO)CO)cc1` [fingolimod] + OCc1c[nH]c2ccccc12 [Indole-3-carbinol] (first compound 10 µM, partner dose 4 µM), the cell count was 31.8%. For `NC(=O)c1ccc(N(C(N)=O)c2c(F)cccc2F)nc1-c1ccc(F)cc1F` + C[C@]1(c2nc3c(C(N)=O)cccc3[nH]2)CCCN1 [Veliparib] (first compound 2 µM, partner dose 7 µM), the cell count was 86.7%. In the case of `CCCCCCCCc1ccc(CCC(N)(CO)CO)cc1` [fingolimod] + O=C(O)[C@@H]1[O][Sb](=[O])([O][Sb]2(=[O])[O][C@H]([C@H](O)CO)[C@H](O)[C@H](C(=O)O)[O]2)[O][C@H]([C@H](O)CO)[C@@H]1O [stibogluconate] (first compound 10 µM, partner dose 10 µM), the cell count is reported as 90.1%. `CC(C)(C)c1cnc(CSc2cnc(NC(=O)C3CCNCC3)s2)o1` + Oc1cc(-c2nc(-c3ccccc3)[nH]c2-c2ccncc2)ccc1Cl [L779450] (first compound 0.05 µM, partner dose 1 µM) gave a cell count of 93.3%. `NC(=O)c1ccc(N(C(N)=O)c2c(F)cccc2F)nc1-c1ccc(F)cc1F` + Nc1ccn([C@@H]2O[C@H](CO)[C@@H](O)C2(F)F)c(=O)n1 [gemcitabine] (first compound 2 µM, partner dose 0.002 µM) gave a cell count of 108%. In the case of `CC(C)(C)c1cnc(CSc2cnc(NC(=O)C3CCNCC3)s2)o1` + COc1cc2c(Oc3ccc4[nH]c(C)cc4c3F)ncnc2cc1OCCCN1CCCC1 [cediranib] (first compound 0.05 µM, partner dose 2 µM), the cell count is reported as 73.4%. Compound `NC(=O)c1ccc(N(C(N)=O)c2c(F)cccc2F)nc1-c1ccc(F)cc1F` + CCc1ccc(CCOc2ccc(CC3SC(=O)NC3=O)cc2)nc1 [pioglitazone] (first compound 2 µM, partner dose 10 µM) has a cell count of 116%. `Cc1ccc(NC(=O)c2cccc(N(C)C)c2)cc1NC(=O)c1ccc(O)cc1` + CN(C)S(=O)(=O)c1ccc2c(c1)/C(=C/c1cc3c([nH]1)CCCC3)C(=O)N2 [SU6656] (first compound 10 µM, partner dose 2 µM) showed a cell count of 129%. For `COc1cc2c(Oc3ccc4[nH]c(C)cc4c3F)ncnc2cc1OCCCN1CCCC1` [cediranib] + Oc1cc(-c2nc(-c3ccccc3)[nH]c2-c2ccncc2)ccc1Cl [L779450] (first compound 2 µM, partner dose 1 µM), the cell count was 73.9%. `COc1cc2c(Oc3ccc4[nH]c(C)cc4c3F)ncnc2cc1OCCCN1CCCC1` [cediranib] + O=C(Nc1ccccc1)c1cc([N+](=O)[O-])ccc1Cl [GW9662] (first compound 2 µM, partner dose 10 µM) was tested, and the cell count was 142%. Work on `CC(C)(C)c1cnc(CSc2cnc(NC(=O)C3CCNCC3)s2)o1` + CCCCCCCCCCCC1=C(O)C(=O)C=C(O)C1=O [Embelin] (first compound 0.05 µM, partner dose 6 µM) yielded a cell count of 88.7%. Work on `Cc1ccc(NC(=O)c2cccc(N(C)C)c2)cc1NC(=O)c1ccc(O)cc1` + Cc1cc([N+](=O)[O-])ccc1NS(=O)(=O)c1cc(Cl)ccc1Cl [FH535] (first compound 10 µM, partner dose 5 µM) yielded a cell count of 72.7%. In the case of `CCCCCCCCc1ccc(CCC(N)(CO)CO)cc1` [fingolimod] + CO[C@H]1C[C@@H]2CC[C@@H](C)[C@@](O)(O2)C(=O)C(=O)N2CCCC[C@H]2C(=O)O[C@H]([C@H](C)C[C@@H]2CC[C@@H](OCCO)[C@H](OC)C2)CC(=O)[C@H](C)/C=C(\C)[C@@H](O)[C@@H](OC)C(=O)[C@H](C)C[C@H](C)/C=C/C=C/C=C/1C [everolimus] (first compound 10 µM, partner dose 0.1 µM), the cell count is reported as 51.6%. For `NC(=O)c1ccc(N(C(N)=O)c2c(F)cccc2F)nc1-c1ccc(F)cc1F` + CN(C)S(=O)(=O)c1ccc2c(c1)/C(=C/c1cc3c([nH]1)CCCC3)C(=O)N2 [SU6656] (first compound 2 µM, partner dose 2 µM), the cell count was 103%. `NC(=O)c1ccc(N(C(N)=O)c2c(F)cccc2F)nc1-c1ccc(F)cc1F` + C[C@@H]1CCN(C(=O)CC#N)C[C@@H]1N(C)c1ncnc2[nH]ccc12 [CP690550] (first compound 2 µM, partner dose 5 µM) showed a cell count of 109%. `CC(C)(C)c1cnc(CSc2cnc(NC(=O)C3CCNCC3)s2)o1` + O=C(O)c1ccc(-c2c[nH]c3ncc(-c4ccccc4)cc23)cc1C1CCCC1 [GSK650394] (first compound 0.05 µM, partner dose 0.8 µM) gave a cell count of 77.5%. `CC(C)(C)c1cnc(CSc2cnc(NC(=O)C3CCNCC3)s2)o1` + O=C(Nc1cccc(Cl)c1)Nc1ncc(CCNc2ncnc3ccsc23)s1 [SNS314] (first compound 0.05 µM, partner dose 0.004 µM) showed a cell count of 96.8%. For `NC(=O)c1ccc(N(C(N)=O)c2c(F)cccc2F)nc1-c1ccc(F)cc1F` + Cc1cc([N+](=O)[O-])ccc1NS(=O)(=O)c1cc(Cl)ccc1Cl [FH535] (first compound 2 µM, partner dose 5 µM), the cell count was 69.6%. `CCc1ccc(CCOc2ccc(CC3SC(=O)NC3=O)cc2)nc1` (stereo not drawn) [pioglitazone] + O=S(=O)(c1ccccc1)N(CC(F)(F)F)c1ccc(C(O)(C(F)(F)F)C(F)(F)F)cc1 [T0901317] (first compound 10 µM, partner dose 7 µM) gave a cell count of 92.3%. Compound `CCCCCCCCc1ccc(CCC(N)(CO)CO)cc1` [fingolimod] + Cn1cncc1[C@@](N)(c1ccc(Cl)cc1)c1ccc2c(c1)c(-c1cccc(Cl)c1)cc(=O)n2C [tipifarnib] (first compound 10 µM, partner dose 0.05 µM) has a cell count of 39.9%. Work on `NC(=O)c1ccc(N(C(N)=O)c2c(F)cccc2F)nc1-c1ccc(F)cc1F` + CC(=O)O[C@@]12CO[C@@H]1C[C@H](O)[C@@]1(C)C(=O)[C@H](O)C3=C(C)[C@@H](OC(=O)[C@H](O)[C@@H](NC(=O)OC(C)(C)C)c4ccccc4)C[C@@](O)([C@@H](OC(=O)c4ccccc4)[C@H]21)C3(C)C [Docetaxel] (first compound 2 µM, partner dose 0.0005 µM) yielded a cell count of 66.4%. Work on `CCCCCCCCc1ccc(CCC(N)(CO)CO)cc1` [fingolimod] + CN(C)S(=O)(=O)c1ccc2c(c1)/C(=C/c1cc3c([nH]1)CCCC3)C(=O)N2 [SU6656] (first compound 10 µM, partner dose 2 µM) yielded a cell count of 40.7%.

Reference: the supplement of paper PMC4604168 (melanoma cell lines)
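Also: cells treated in 1,536-well plates, then fixed and DAPI-stained, with nuclei counted from automated high-throughput microscope images.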
